Consider 1 molecule from the supplement of paper PMC8728848.

Holding throughout (assay): glycan array binding signal (z-score within array); higher = stronger binding
Holding throughout (conditions): glycan notation: IUPAC condensed, linker removed

Experiment [1] has as its target Gal(b1-4)GlcNAc(b1-3)Gal(b1-4)GlcNAc(b1-3)Gal(b1-4)GlcNAc(b1-2)Man(a1-3)[Gal(b1-4)GlcNAc(b1-3)Gal(b1-4)GlcNAc(b1-3)Gal(b1-4)GlcNAc(b1-2)Man(a1-6)]Man(b1-4)GlcNAc(b1-4)GlcNAc. Put shortly: (§1)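 The binding signal is a Z-score computed within each array and averaged over linkers. Arrays of the same protein sequence at different concentrations or buffers were also averaged together. Data originate from 3228 arrays in the Consortium for Functional Glycomics database, kept only where the protein sequence was available.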

The target of experiment [2] is Gal(b1-4)GlcNAc(b1-3)Gal(b1-4)GlcNAc(b1-3)Gal(b1-4)GlcNAc(b1-2)Man(a1-3)[Gal(b1-4)GlcNAc(b1-3)Gal(b1-4)GlcNAc(b1-3)Gal(b1-4)GlcNAc(b1-2)Man(a1-6)]Man(b1-4)GlcNAc(b1-4)[Fuc(a1-6)]GlcNAc. The method, boiled down: as §1
Experiment [3] concerns the target Gal(b1-4)GlcNAc(b1-3)Gal(b1-4)GlcNAc(b1-3)Gal(b1-4)GlcNAc(b1-2)[Gal(b1-4)GlcNAc(b1-3)Gal(b1-4)GlcNAc(b1-3)Gal(b1-4)GlcNAc(b1-6)]Man(a1-6)[Gal(b1-4)GlcNAc(b1-3)Gal(b1-4)GlcNAc(b1-3)Gal(b1-4)GlcNAc(b1-2)Man(a1-3)]Man(b1-4)GlcNAc(b1-4)[Fuc(a1-6)]GlcNAc. Put shortly:
as §1

Experiment [4] deals with Gal(b1-4)GlcNAc(b1-3)Gal(b1-4)GlcNAc(b1-3)Gal(b1-4)GlcNAc(b1-3)Gal(b1-4)GlcNAc(b1-2)Man(a1-3)[Gal(b1-4)GlcNAc(b1-3)Gal(b1-4)GlcNAc(b1-3)Gal(b1-4)GlcNAc(b1-3)Gal(b1-4)GlcNAc(b1-2)Man(a1-6)]Man(b1-4)GlcNAc(b1-4)GlcNAc. Put shortly: as §1
The target of experiment [5] is Gal(b1-4)GlcNAc(b1-3)Gal(b1-4)GlcNAc(b1-3)Gal(b1-4)GlcNAc(b1-3)Gal(b1-4)GlcNAc(b1-2)Man(a1-3)[Gal(b1-4)GlcNAc(b1-3)Gal(b1-4)GlcNAc(b1-3)Gal(b1-4)GlcNAc(b1-3)Gal(b1-4)GlcNAc(b1-2)Man(a1-6)]Man(b1-4)GlcNAc(b1-4)[Fuc(a1-6)]GlcNAc. Put shortly: as §1
The target of experiment [6] is Gal(b1-4)GlcNAc(b1-3)Gal(b1-4)GlcNAc(b1-3)Gal(b1-4)GlcNAc(b1-3)Gal(b1-4)GlcNAc(b1-2)[Gal(b1-4)GlcNAc(b1-3)Gal(b1-4)GlcNAc(b1-3)Gal(b1-4)GlcNAc(b1-3)Gal(b1-4)GlcNAc(b1-6)]Man(a1-6)[Gal(b1-4)GlcNAc(b1-3)Gal(b1-4)GlcNAc(b1-3)Gal(b1-4)GlcNAc(b1-3)Gal(b1-4)GlcNAc(b1-2)Man(a1-3)]Man(b1-4)GlcNAc(b1-4)[Fuc(a1-6)]GlcNAc. The method, boiled down: as §1
Experiment [7] concerns the target Gal(b1-4)GlcNAc(b1-3)Gal(b1-4)GlcNAc(b1-3)Gal(b1-4)GlcNAc(b1-3)Gal(b1-4)GlcNAc(b1-3)Gal(b1-4)GlcNAc(b1-2)Man(a1-3)[Gal(b1-4)GlcNAc(b1-3)Gal(b1-4)GlcNAc(b1-3)Gal(b1-4)GlcNAc(b1-3)Gal(b1-4)GlcNAc(b1-3)Gal(b1-4)GlcNAc(b1-2)Man(a1-6)]Man(b1-4)GlcNAc(b1-4)GlcNAc. Put shortly:
as §1

The target of experiment [8] is Gal(b1-4)GlcNAc(b1-3)Gal(b1-4)GlcNAc(b1-3)Gal(b1-4)GlcNAc(b1-3)Gal(b1-4)GlcNAc(b1-3)Gal(b1-4)GlcNAc(b1-2)Man(a1-3)[Gal(b1-4)GlcNAc(b1-3)Gal(b1-4)GlcNAc(b1-3)Gal(b1-4)GlcNAc(b1-3)Gal(b1-4)GlcNAc(b1-3)Gal(b1-4)GlcNAc(b1-2)Man(a1-6)]Man(b1-4)GlcNAc(b1-4)[Fuc(a1-6)]GlcNAc. The method, boiled down: as §1
The target of experiment [9] is Gal(b1-4)GlcNAc(b1-3)Gal(b1-4)GlcNAc(b1-3)Gal(b1-4)GlcNAc(b1-3)Gal(b1-4)GlcNAc(b1-3)Gal(b1-4)GlcNAc(b1-2)[Gal(b1-4)GlcNAc(b1-3)Gal(b1-4)GlcNAc(b1-3)Gal(b1-4)GlcNAc(b1-3)Gal(b1-4)GlcNAc(b1-3)Gal(b1-4)GlcNAc(b1-6)]Man(a1-6)[Gal(b1-4)GlcNAc(b1-3)Gal(b1-4)GlcNAc(b1-3)Gal(b1-4)GlcNAc(b1-3)Gal(b1-4)GlcNAc(b1-3)Gal(b1-4)GlcNAc(b1-2)Man(a1-3)]Man(b1-4)GlcNAc(b1-4)[Fuc(a1-6)]GlcNAc. Put shortly: as §1

Experiment [10] deals with Gal(b1-4)GlcNAc(b1-3)Gal(b1-4)GlcNAc(b1-3)Gal(b1-4)GlcNAc(b1-3)Gal(b1-4)GlcNAc(b1-3)Gal(b1-4)GlcNAc(b1-3)Gal(b1-4)GlcNAc(b1-2)Man(a1-3)[Gal(b1-4)GlcNAc(b1-3)Gal(b1-4)GlcNAc(b1-3)Gal(b1-4)GlcNAc(b1-3)Gal(b1-4)GlcNAc(b1-3)Gal(b1-4)GlcNAc(b1-3)Gal(b1-4)GlcNAc(b1-2)Man(a1-6)]Man(b1-4)GlcNAc(b1-4)GlcNAc. Put shortly:
as §1

Experiment [11] addresses Gal(b1-4)GlcNAc(b1-3)Gal(b1-4)GlcNAc(b1-3)GalNAc. The method, boiled down:
as §1

In experiment [12] the target is Gal(b1-4)GlcNAc(b1-3)Gal(b1-4)GlcNAc(b1-3)[Gal(b1-4)GlcNAc(b1-3)Gal(b1-4)GlcNAc(b1-6)]GalNAc. Put shortly:
as §1

Experiment [13] deals with Gal(b1-4)GlcNAc(b1-3)Gal(b1-4)GlcNAc(b1-6)[Gal(b1-3)]GalNAc. Put shortly:
as §1

In experiment [14] the target is Gal(b1-4)GlcNAc(b1-3)Gal(b1-4)[Fuc(a1-3)]GlcNAc(b1-3)Gal(b1-4)[Fuc(a1-3)]GlcNAc. The method, boiled down: as §1
Experiment [15] concerns the target Gal(b1-4)GlcNAc(b1-3)GalNAc. Put shortly: as §1
The target of experiment [16] is Gal(b1-4)GlcNAc(b1-3)[Fuc(a1-3)GlcNAc(b1-6)]Gal(b1-4)Glc. The method, boiled down:
as §1

Experiment [17] addresses Gal(b1-4)GlcNAc(b1-3)[Gal(b1-4)GlcNAc(b1-6)]Gal(b1-4)GlcNAc. Put shortly: as §1
Experiment [18] deals with Gal(b1-4)GlcNAc(b1-3)[GlcNAc(b1-6)]Gal(b1-4)GlcNAc. Put shortly: as §1
Experiment [19] has as its target Gal(b1-4)GlcNAc(b1-6)Gal(b1-4)GlcNAc. The method, boiled down:
as §1

The list shows a part of the results.

B1: OGAN (protein)
chain: MVQKESQATLEERESELSSNPAASAGASLEPPAAPAPGEDNPAGAGGAAVAGAAGGARRFLCGVVEGFYGRPWVMEQRKELFRRLQKWELNTYLYAPKDDYKHRMFWREMYSVEEAEQLMTLISAAREYEIEFIYAISPGLDITFSNPKEVSTLKRKLDQVSQFGCRSFALLFNDIDHNMCAADKEVFSSFAHAQVSITNEIYQYLGEPETFLFCPTEYCGTFCYPNVSQSPYLRTVGEKLLPGIEVLWTGPKVVSKEIPVESIEEVSKIIKRAPVIWDNIHANDYDQKRLFLGPYKGRSTELIPRLKGVLTNPNCEFEANYVAIHTLATWYKSNMNGVRKDVVMTDSEDSTVSIQIKLENEGSDEDIETDVLYSPQMALKLALTEWLQEFGVPHQY
On to B1, for which the “glycan array binding signal (z-score)” value is -0.025 in experiment [1]; -0.038 in experiment [2]; -0.03 in experiment [3]; -0.049 in experiment [4]; -0.013 in experiment [5]; -0.059 in [6]. For the same molecule, the “glycan array binding signal (z-score)” value in [7] was -0.05; in [8], -0.001; in experiment [9], -0.031; in experiment [10], 0.004; in [11], -0.058; in experiment [12], -0.027. The “glycan array binding signal (z-score)” value in experiment [13] was -0.048; in [14], -0.056; in experiment [15] it was -0.068; in experiment [16] it was -0.056; in [17], -0.03; in experiment [18] it was -0.059. Moreover, in experiment [19], the “glycan array binding signal (z-score)” value is -0.064.
